In the GPR68 mutational scans of Howard et al. (2025):
Scores whose standard error is large were omitted. Two further conditions of the source, in which the scores hardly spread, are not listed. Read del as a deletion of the residues named and ins as an insertion between two positions. For part of these data: How much ogerin was present is not stated here.

B1: GPR68, Q15743 (parent)
chain: MGNITADNSSMSCTIDHTIHQTLAPVVYVTVLVVGFPANCLSLYFGYLQIKARNELGVYLCNLTVADLFYICSLPFWLQYVLQHDNWSHGDLSCQVCGILLYENIYISVGFLCCISVDRYLAVAHPFRFHQFRTLKAAVGVSVVIWAKELLTSIYFLMHEEVIEDENQHRVCFEHYPIQAWQRAINYYRFLVGFLFPICLLLASYQGILRAVRRSHGTQKSRKDQIQRLVLSTVVIFLACFLPYHVLLLVRSVWEASCDFAKGVFNAYHFSLLLTSFNCVADPVLYCFVSETTHRDLARLRGACLAFLTCSRTGRAREAYPLGAPEASGKSGAQGEEPELLTKLHPAFQTPNSPGSGGFPTGRLA

What was measured:
[1] = variants of: B1; assay: surface expression score (Enrich2 score, wild type = 0); higher = more signal; HEK293T, FACS bins
[2] = variants of: B1; assay: cAMP reporter score (Enrich2 score, wild type = 0); higher = more signal; HEK293T, FACS bins

Variant | surface expression score [1] | cAMP reporter score ([2]; pH 6, modulator: ogerin) | cAMP reporter score ([2]; pH 6.5, modulator: ogerin) | cAMP reporter score ([2]; pH 6)
V171D | 0.764 |  |  | 
V171T | 0.678 | -0.595 |  | 
V141A | -0.826 |  | -2.06 | 
Y320_P321del | -0.758 | 0.374 |  | 
F194H | -3.04 | -0.318 | -3.41 | 0.626
F194K | -3.25 | -2.14 | -0.939 | 
S88W | 0.535 | 0.761 |  | 
G302R | 1.56 | 0.128 | 2.08 | 2.47
Y187D | -1.43 | 0.285 |  | -0.971
Y187E |  | -0.323 | -1.94 | -0.679
I71_C72insGS | -3.48 |  | -2.36 | 
R251F | -1.49 | -0.946 | -2.33 | -2.45
R251Q | -0.801 | -0.71 | -0.955 | -1.51
W254T | 0.654 | -0.281 |  | 
A122V |  | -2.2 | -0.437 | 
A122N | -0.643 | -0.802 | -1.85 | 
A122W | -0.396 | -1.8 | -3.22 | 
W146Y |  | -1.31 |  | -0.591
V253Y | 0.745 | 0.713 | 0.712 | 
A203H | -0.595 |  | -0.406 | 0.936
A203E |  | -2.94 |  | -0.925
A203V | -0.314 |  |  | 
Y268Q |  | -0.823 | -0.901 | 

Variant | surface expression score [1] | cAMP reporter score ([2]; pH 6, modulator: ogerin) | cAMP reporter score ([2]; pH 6.5, modulator: ogerin) | cAMP reporter score ([2]; pH 6)
Y268T |  | -0.692 | -1.72 | 
Y268K | -2.24 | -0.245 | -2.09 | -1.02
E103A | 0.197 | -0.929 | -3.13 | 
E166V | -0.403 | -0.597 | 0.083 | -0.527
Q334Y |  | 0.677 | -0.429 | -0.561
F132E | -3.21 |  | -1.74 | 
F132Y |  | -0.401 | -2.46 | 
R53Q |  | -0.935 | -0.391 | 
L74N |  | -0.647 | -0.432 | 
V230C | -1.31 | -0.056 | 0.961 | -0.593
V230Q | -1.47 |  | -1.46 | 
V230Y | -1.8 |  | -1.68 | -1.38
V230R |  | -2.72 |  | 
V230D | -2.26 |  |  | 
V230I | -1.27 | -0.076 | 2.4 | 2.77
V230H |  | -0.644 | -0.426 | -0.233
L92_S93insG | -0.317 | -0.669 |  | 
F190D |  |  | -1.77 | 
F190G | -0.407 |  | -1.8 | 1.33
V34R |  | -1.3 | -0.765 | 
L209E | -0.642 | -0.681 |  | -2.62
A239F |  |  | 1.67 | 0.811
A239D |  | -0.71 | -0.437 | 

Variant | surface expression score [1] | cAMP reporter score ([2]; pH 6, modulator: ogerin) | cAMP reporter score ([2]; pH 6.5, modulator: ogerin) | cAMP reporter score ([2]; pH 6)
A239K |  | -0.628 | -1.64 | -0.089
D118T | -1.36 | -0.906 | 2.72 | 
D118C | -1 |  | 6.74 | 
D118Q | -1.77 | -0.304 | 0.972 | 
D118G | -1.4 | 0.232 | 0.646 | 
R189del | -2.18 | -1.51 | -1.07 | -1.25
A319S | 0.107 | 1.15 |  | 
A319G | 0.386 | -0.638 | -0.741 | 2.69
I163A |  |  | 2.74 | -0.423
L157G | 0.185 | -1.41 | -0.965 | 
R214K | 2.3 | -0.603 | -0.32 | -0.339
R214G | 1.81 | 1.08 | 0.82 | -0.902
V192N |  | -0.092 |  | 2.65
Q182del | 0.492 | -0.9 | 0.124 | 
I178E | -0.693 | -1.21 | -2.69 | -0.854
C172N | -1.65 | -1.69 | -2.51 | -1.75
C172G | -1.73 | -2.07 | -1.21 | -1.08
L200_L202del | -2.19 | -3.52 | -1.17 | -1.49
L150H | -2.38 | -3.59 | -2.04 | -0.456
L150R | -2.27 | -1.48 | -0.963 | 
L150M |  |  | -0.426 | 
V230_L231insGSG | -3.56 | -1.35 |  | -1.78
E336_E337insG | 0.449 | 0.696 | 0.044 | 0.897

Variant | surface expression score [1] | cAMP reporter score ([2]; pH 6, modulator: ogerin) | cAMP reporter score ([2]; pH 6.5, modulator: ogerin) | cAMP reporter score ([2]; pH 6)
F237H |  | -3.47 |  | 0.115
H130_Q131insGS |  | -1.9 | 0.02 | 
C240V | -0.336 | 0.855 |  | 3.05
C240Q | -1.7 | -0.395 | -0.968 | -0.035
C240N | -1.16 | -1.09 |  | 
C240D |  | -2.7 | -2.4 | -0.697
G355N | 2.08 | 3.71 | 2.12 | 2.15
D118_R119insG | -2.7 | -0.688 | -0.437 | 
C258V | -2.79 | -1.97 |  | -1.69
C258K | -1.53 | -0.634 | -1.14 | -0.198
Q227_R228insG | 0.414 |  | -2.35 | -0.624
R213Q | 0.454 | 1.33 | 3.31 | 
Y205S | -0.283 |  |  | -0.051
Y205H |  | -0.186 | -0.444 | 0.382
Y205P |  | -1.11 | -1.11 | -2.02
I99_L100insG | -2.71 | -1.12 |  | 
N167V | 1.24 | -0.401 | -1.66 | -0.95
N167W | 0.807 | -0.431 | -0.903 | -0.652
C61H | -1.7 | -0.663 |  | 
A138del | -2.94 | -1.41 |  | 
P197_I198insG | -1.98 |  | -1.52 | 
D67_L68insG |  |  | -1.45 | 
C199L | 1.67 |  |  | 1.08

Variant | surface expression score [1] | cAMP reporter score ([2]; pH 6, modulator: ogerin) | cAMP reporter score ([2]; pH 6.5, modulator: ogerin) | cAMP reporter score ([2]; pH 6)
C199D |  | -0.326 |  | -0.403
C199P |  | -2.58 | -1.25 | 
C199K | -0.289 | -3.15 | -0.437 | -0.663
A184_I185insGS |  | -1.14 | -1.63 | -0.234
S153_Y155del | -2.04 | -0.884 | -1.45 | -0.902
E337T |  | 0.448 | 0.714 | 2.21
E337V | -0.414 |  | 1.1 | 1.99
A347T | 0.195 | 0.108 | -0.733 | -1.06
S276L | -0.744 | -0.464 | -1.06 | -0.258
A66Y | -0.508 | -1.37 | -0.737 | 
R128P |  | -1.03 |  | 
R128N | -0.281 |  |  | 
W181Y |  | 0.564 | -0.595 | 
Y120I | -3.32 |  | -0.333 | 
T313Y | -0.616 | 0.636 | -0.995 | 
Q49V | -0.864 |  | -0.834 | 
L202N |  | 1.03 | -2.29 | 
L202P | -1.48 | -1.93 | -0.741 | 
L202R | -3.38 |  | -1.53 | 
S232_T233insGSG | -2.6 | -0.632 | -1 | -0.138
F36S |  | -0.647 | -0.772 | 
C304R |  |  | -1.22 | 
Y244P | -0.289 | -3.6 |  | 

Variant | surface expression score [1] | cAMP reporter score ([2]; pH 6, modulator: ogerin) | cAMP reporter score ([2]; pH 6.5, modulator: ogerin) | cAMP reporter score ([2]; pH 6)
F111_L112insGSG | -2.64 | -1.71 |  | 
V212_R213insG | -0.025 | -1.22 |  | 
T275_F277del | -0.427 |  | -0.609 | -1.01
T14Y | 1.63 | 1.02 | -0.833 | 
V230_S232del | -0.394 | -0.665 | -0.947 | -0.584
E339N | 0.27 | -0.653 |  | 0.054
V123I | -1.13 | -0.656 | 1.71 | 
H159del | -1.36 | -0.489 | -0.649 | 
L195_F196insG |  | -0.631 | -0.344 | -0.446
N186G | 0.364 | 0.792 | 2.38 | 3.03
S204D | -1.89 |  | -1.34 | 
S204H | -0.733 | -0.691 | -3.05 | 
S232_V234del | -1.52 | -1.8 | -0.732 | 
A281I | 0.866 |  | -0.5 | -0.921
T309R | 1.33 | 0.521 |  | 2.48
V246K | -3.28 | -2.56 | -0.619 | -1.01
Y102E | 0.435 |  | -0.654 | 
A180F | -0.375 |  | -1.43 | 
A180D | -0.24 | 0.371 | 3.62 | 
A180V | 0.129 |  | -0.104 | -1.03
G358del |  | -1.49 |  | -0.034
I198_L200del |  | -0.689 | -0.442 | -1.08
V58F | -0.931 |  | -1.42 | 

Variant | surface expression score [1] | cAMP reporter score ([2]; pH 6, modulator: ogerin) | cAMP reporter score ([2]; pH 6.5, modulator: ogerin) | cAMP reporter score ([2]; pH 6)
R210Y | -0.34 |  | -0.012 | -1.15
R210S |  | 0.217 | -0.33 | 1.65
Q219D | 2.36 | 1.82 | 2.12 | 2.26
L229P | -0.288 | -0.665 | -0.426 | 
L229Y | -3.4 | -2.47 | -0.435 | -2.97
L229I | -0.284 |  | -0.397 | 
L229E | -1.15 | -0.385 | -0.416 | 0.756
L229N | -0.26 | -0.638 | -0.426 | 2.35
K51D | -1.25 |  | 0.335 | 
K51Y | -0.408 | -1.05 |  | 
L248F |  |  | -0.436 | -0.409
R228C | -0.495 | 0.177 | 1.05 | 2.16
R317_A319del | -0.416 | -0.58 | -0.431 | -0.421
I107T | -0.246 | -1.38 |  | 
F348Q | 0.676 | 0.251 |  | 
Q227D | 0.168 | -0.514 | -0.384 | 0.253
C279N | -2.52 | -2.01 |  | -1.09
G329Q | 0.855 | 1.04 | 0.68 | 1.22
G329K | 0.613 | 1.22 |  | 
E255N | 0.531 |  | -1.1 | 
C94V | -0.782 | -1.5 | -0.117 | 
A124_H125del | -1.12 |  | -1.29 | 
